# Assay results taken from PubChem BioAssay AID720542 (National Center for Advancing Translational Sciences (NCATS), 2013).
# Screen size: about 360,000 compounds; about 740 (0.21%) were called active. The shares of active, inactive and inconclusive entries below differ from those in the screen. The call rests on the fitted dose curve; in most records, active means well fitted inhibition curve with a large enough effect; inconclusive means small, poorly fitted or top-dose-only effect; inactive means no such curve, though single readings can be large or run the other way. No potency is given beside an inconclusive call; the fits are too rough.
# Test system: Plasmodium falciparum AMA1 (3D7) - RON2 peptide interaction
# Assay: qHTS for Inhibitors of AMA1-RON; Towards Development of Antimalarial Drug Lead: Primary Screen; further: nearly all actives have a fitted effect of over 45% in size;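 on activity change, negative = inhibition: 0% = vehicle wells and -100% = peptide control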
# Settings: AlphaScreen AMA1-biotinylated RON2 peptide binding; activity change, negative = inhibition: at 58.2 µM (top of the series) unless noted
# Source text: Plasmodium, the causative agent of malaria, is one of the world's deadliest parasitic diseases. Currently there is no vaccine available and there is widespread resistance to common anti-malarial drugs. This warrants novel, alternative approaches for developing improved therapy. During infection, one such essential interaction is between two parasite proteins, the apical membrane antigen1 (AMA1) that is translocated onto the merozoite surface and the rhoptry neck protein 2 (RON2), which is transferred to the red blood cells (RBC) membrane during invasion (Besteiro et.al., 2009). Recently, the Miller lab has shown that the interaction between AMA1 and RON2 is essential for junction formation of the parasite with the host cell (Srinivasan et.al., 2011). The binding of the RON2 peptide to the hydrophobic pocket in AMA triggers the formation of the moving junction which provides a firm anchor for the parasite to pull itself into the RBC using its actin-myosin motor; an irreversible step that commits the parasite for invasion. Only one AMA1 and RON2 genes exists in Plasmodium and there are no alternate pathways. Moreover, the region corresponding to RON2 peptide is conserved in all P. falciparum isolates for which sequences are available. The key residues in the AMA1 hydrophobic pocket that binds RON2 are also conserved and indicate a functional constraint governing this essential step in invasion since a short RON2 peptide (RON2L) corresponding to the binding region on AMA1 is sufficient to compete with the native RON2 protein and inhibits invasion (Tonkin et.al, 2011). Therefore, developing small molecule inhibitors of this interaction offers a promising target opening a new arena for anti-malarial therapeutics drug design.
# In collaboration with the Miller lab, a quantitative High Throughput Screen using the AlphScreen technology was developed using a recombinant his-tagged AMA1 and a biotinylated RON2 peptide. This fluorescent screen was assayed against the NIH Molecular Libraries Small Molecule Repository (MLSMR). Inhibition of this protein-protein interaction is the desired outcome of this assay. However, due the limitations of this AlphaScreen assay, a large number of artifacts were observed. An AlphaScreen counterscreen was run to identify the true inhibitors, triage compound activity, and weed out false positives.
# NIH Chemical Genomics Center [NCGC]
# NIH Molecular Libraries Probe Centers Network [MLPCN]
# Assay Submitter (PI): Louis Miller, National Institute of Allergy and Infectious Disease (NIAID)
# Two microliters of his-tagged AMA1 3D7 allele protein (final concentration 25 nM) was dispensed into a 1,536-well assay plate. Small molecules and positive control peptides were pin-transferred (23 nL or 46 nL) via Kalypsys pin-tool equipped with a 1,536-pin array, resulting in final compound and peptide concentration ranges of 91.5 nM - 57.2 µM, and 15.6 nM - 2.00 µM, respectively. Unlabeled RON2 peptide or R1 peptide ([…]) that specifically binds the 3D7 AMA1 was used as a positive control that inhibited the binding of RON2L to AMA1. After 15 minutes incubation, 1 uL of biotinylated RON2 peptide (final concentration 25 nM) or buffer were dispensed and the assay plate was incubated for an additional 30 minutes at room temperature and protected from light. This was followed by an addition of 1 uL mixture of donor and acceptor beads (10 ug/mL final concentrations for each). The plates were incubated for 30 min at room temperature and read using the EnVision(R) plate reader (PerkinElmer). Maximum inhibition response was normalized to the positive control signal while no inhibition response was normalized to the DMSO treated wells.
# Potency means the concentration at half of the fitted maximal effect; tags describe the fitted curve by direction and shape.
Structure (SMILES),"activity change, negative = inhibition",Potency
CN(Cc1nc(-c2cccs2)no1)CC1COCCO1 (centres undefined),inactive: 10.8%,–
CN(C)c1ccc(CCc2ccc(N)cc2)cc1,–,"inconclusive [inhibitor, single point]"
CN(C)c1ccc(C(=O)OCC(=O)Nc2ccc(S(N)(=O)=O)cc2)cc1,–,"inconclusive [inhibitor, single point]"
CC(=O)Nc1ccc(S(=O)(=O)NNc2ccc([N+](=O)[O-])cc2)cc1,–,"inconclusive [inhibitor, single point]"
N/C(=N\OC(=O)Cc1ccc(Cl)cc1)c1ccccn1,inactive: 17.7%,–
CC1CCN(CC(C)OC(=O)c2ccc3c(c2)OCCO3)CC1 (centres undefined),inactive: 10.3%,–
O=C(Nc1ccc(N2CCCC2)c(Cl)c1)c1ccccc1[N+](=O)[O-],inactive: -2.57%,–
CCOC(=O)c1nnc(-c2ccccc2)nc1Sc1c(Cl)cccc1Cl,–,"inconclusive [inhibitor, partial curve]"
COC(=O)c1c(NC(=O)CN2CCN(C(=O)c3ccco3)CC2)c2c(C)cccc2n1C,inactive: 1.61%,–
CCOC(=O)c1c(C)n(C(=O)c2ccco2)c(=O)n1C(=O)c1ccco1,–,"inconclusive [inhibitor, partial curve]"
CCOC(=O)CCCCC(=O)c1[nH]c(=O)[nH]c1CN1CCOCC1,–,active: 9.47 µM
O=C(c1cc(COc2ccc(F)cc2Cl)on1)N1CCC(c2ccncc2)CC1,–,"inconclusive [inhibitor, single point]"
N#Cc1cccc(CSc2nnc(CCCO)n2-c2ccccc2)c1,inactive: 11.9%,–
CN(C)CCN(C(=O)c1ccc2ccccc2c1)c1nc2ccc(F)cc2s1,inactive: -2.02%,–
CS(=O)(=O)N1CCC(Oc2ccccc2C(=O)N2CCCCC2CO)CC1 (centres undefined),inactive: -3.19%,–
COc1cc(N=Nc2ccc(C)cc2S(N)(=O)=O)c(C)cc1N,–,"inconclusive [inhibitor, single point]"
CSc1cccc(CN2CCC(CO)(Cc3cccc(C(F)(F)F)c3)CC2)c1,–,"inconclusive [inhibitor, full curve, poor fit]"
N#CCSc1nc2sc3c(c2c(=O)n1C1CCCCC1)CCCC3,inactive: 33.6%,–
O=C(Cn1cc(COc2ccc(Br)cc2)nn1)c1ccc(O)cc1,inactive: 0%,–
CC(C)OC(=O)c1cc2c(ccn2C)n1CC(=O)N(Cc1ccccc1)c1ccc(F)cc1,–,"inconclusive [inhibitor, single point]"
COc1cc(/C=C/C(=O)OCC(=O)NC(=O)NC2CCCCC2)ccc1OC(F)F,inactive: -1.55%,–
Cc1ccc(NC2=C(Cl)C(=O)OC2NC(=O)c2ccccc2)cc1 (centres undefined),inactive: -9.79%,–
O=C(O)CCCCC1SCC2NC(=O)NC21 (centres undefined),–,"inconclusive [inhibitor, full curve]"
COc1cc(C(CCN2CCN(c3ccccc3)CC2)c2c(OC)cc(OC)c3c(C)cc(=O)oc23)cc(OC)c1OC (centres undefined),–,"inconclusive [inhibitor, single point]"
Cc1ccc(C(=O)C(c2ccccc2)N2Cc3ccccc3C2=N)cc1 (centres undefined),–,"inconclusive [inhibitor, partial curve]"

Structure (SMILES),"activity change, negative = inhibition",Potency
Clc1ccc(-c2ccc(CN3CCCCC3)o2)cc1,inactive: -16.9%,–
CCOc1cc(CNc2ccc(OC)cc2)cc(Br)c1OCC(=O)NC(C)(C)C,–,"inconclusive [inhibitor, partial curve]"
CCN(CCc1ccccc1)c1ccc2c(c1)C1CC2CCN1Cc1ccccc1 (centres undefined),–,"inconclusive [inhibitor, partial curve]"
CCOc1ccccc1NC(=O)COC(=O)C1CCC(=O)N1 (centres undefined),inconclusive: -2.48% [inhibitor],–
O=C(NNc1ccccc1[N+](=O)[O-])Nc1ccc(F)cc1,–,"inconclusive [inhibitor, full curve]"
O=S(=O)(c1ccc2nc(N3CCN(c4ccc(F)cc4)CC3)ccc2c1)N1CCCCC1,–,"inconclusive [inhibitor, single point]"
CC1CC(C)CN(CC(=O)NC(c2ccccc2)c2ccccc2)C1 (centres undefined),–,"inconclusive [inhibitor, single point]"
Cc1ccc(C(=O)CSc2ccc(-c3ccccc3)nn2)cc1,inactive: 18.4%,–
Cc1sc2c(c1C)c(=O)nc1scc(CC(=O)O)n12,–,"inconclusive [inhibitor, single point]"
CN(C)CCCN(C(=O)c1cccc(N2C(=O)CCC2=O)c1)c1nc2cc3c(cc2s1)OCO3,inactive: -9.93%,–
CCN(CC)c1ccc(/C=N/N=C(c2ccccc2)c2ccccc2)c(O)c1,–,"inconclusive [inhibitor, partial curve]"
c1ccc(-c2n[nH]c(-c3ccccn3)n2)nc1,–,"inconclusive [inhibitor, single point]"
O=C(Nc1ccccc1N1CCCC1)C1CCN(C(=O)c2ccc(F)cc2)CC1,inactive: 5.08%,–
COc1ccc(NC(=O)c2cc(C3CCCCN3C(=O)c3cccs3)on2)c(C)c1 (centres undefined),inactive: -9.56%,–
CCn1c2ccccc2c2nc3cc(OC)c(OC)cc3nc21,inactive: 54.8%,–
COc1ccc(C=NN=C2c3ccccc3-c3ccccc32)cc1O,–,"inconclusive [inhibitor, single point]"
CCOc1cc2c(cc1OCC)-n1cccc1C(c1cccc([N+](=O)[O-])c1)NC2 (centres undefined),–,"inconclusive [inhibitor, single point]"
CCOC(=O)c1ccc(N2C(=O)C(CC(=O)NC)N(CCc3ccc(OC)c(OC)c3)C2=S)cc1 (centres undefined),–,"inconclusive [inhibitor, single point]"
CCOC(=O)c1[nH]cnc1C(=O)Nc1ccccn1,–,"inconclusive [inhibitor, partial curve]"
O=C(Nc1ccccc1)OCCCCOC(=O)Nc1ccccc1,inactive: -8.66%,–
COC(=O)CN1C(=S)N(c2ccc(F)cc2)C(=O)C1CC(=O)Nc1ccc(OC)cc1 (centres undefined),–,"inconclusive [inhibitor, partial curve]"
COc1ccc(C)cc1NCc1ccc([N+](=O)[O-])cc1,–,"inconclusive [inhibitor, single point]"
CCC1=C(OC(=O)N(CC)CC)N2C(=O)OC(=NCCc3c[nH]c4ccccc34)[C@]2(C)[C@H]2C1=CC[C@H]1C(=O)N(CC(=O)OC)C(=O)[C@H]12,–,"inconclusive [inhibitor, single point]"
COC(=O)C1=C(C)N(Cc2cccnc2)C(=O)/C1=C\c1sccc1C,–,"inconclusive [inhibitor, full curve, poor fit]"
COc1ccc(/C=C2\Cc3ccccc3C2=O)cc1OC,inactive: -1.98%,–

Structure (SMILES),"activity change, negative = inhibition",Potency
COc1ccc(C(=O)C2CCN(C(=O)c3ccc(C)cc3)CC2)cc1,inactive: 1.62%,–
Cc1ccc(O)c(C2=NNC(c3ccc(Cl)cc3)C2)c1 (centres undefined),inactive: 83.9%,–
COc1ccc(Br)cc1CN1CCN(C(=O)c2ccc(F)cc2)CC1,–,"inconclusive [inhibitor, single point]"
COC(=O)c1cccc(NC(=O)c2cccc(OC)c2)c1,–,"inconclusive [inhibitor, single point]"
CC(=O)NCC(=O)OCC(=O)Nc1nc(-c2ccccc2)cs1,inactive: 6.41%,–
C/C(=N\NC(=O)c1c(Cl)cnn1C)c1cccc(NC(=O)COc2ccccc2)c1,–,"inconclusive [inhibitor, partial curve]"
O=C(CN1CCCCC1)Nc1ccc(N2CCCCCC2)cc1,–,"inconclusive [inhibitor, partial curve]"
Cc1onc(-c2ccccc2Cl)c1C(=O)NCc1ccco1,–,"inconclusive [inhibitor, partial curve]"
COc1ccc(S(=O)(=O)N(CC(=O)N/N=C/c2cccs2)c2cc(C)cc(C)c2)cc1OC,inactive: -8.75%,–
O=C(Nc1ccc2c(c1)OCO2)C1CC1,inactive: 16.6%,–
O=C1C(=C(c2ccccc2)c2ccccc2)Nc2ccccc21,–,active: 25.1 µM
COc1ccc(CNCCc2c(C)[nH]c3ccc(OC(F)(F)F)cc23)c(OC)c1,–,"inconclusive [inhibitor, single point]"
CC(=O)Nc1ccc(S(=O)(=O)N2CCN(Cc3cccc([N+](=O)[O-])c3)CC2)cc1,–,"inconclusive [inhibitor, partial curve, poor fit]"
CO/N=C(\c1nonc1N)N1CCN(c2ccc(Cl)cc2[N+](=O)[O-])CC1,–,"inconclusive [inhibitor, single point]"
CCN(CC)CCN(Cc1cc2cccc(C)c2[nH]c1=O)C(=S)Nc1ccccc1,–,"inconclusive [inhibitor, partial curve]"
CCOc1ccc(/C=C2/SC(=S)N(n3c(C)ccc3C)C2=O)cc1,–,"inconclusive [inhibitor, partial curve]"
O=C(Nc1cccc([N+](=O)[O-])c1)NC1CCCCCCC1,inactive: -10.4%,–
COc1ccc(NC(=O)c2cc(-c3ccc(F)cc3OC)n[nH]2)c(C)c1,inactive: 10.1%,–
COC(=O)c1cc2c(ccn2-c2ccc(F)cc2)n1CC(C)C,–,"inconclusive [inhibitor, single point]"
CCN(c1ccc(NC(=O)COC(=O)c2ccc(C)c(S(=O)(=O)N3CCOCC3)c2)cc1)C(C)C,–,"inconclusive [inhibitor, full curve, poor fit]"
CCOc1ccc(-c2nnc(-c3ccccc3)o2)cc1,inactive: 12%,–
CCOC(=O)CC(NC(=O)c1cccc2c1C(=O)N(Cc1cccnc1)C2)c1ccc(OC(C)C)cc1 (centres undefined),inactive: 31.8%,–
COc1cc(O)c(C(CCN2CCN(c3ccccc3)CC2)c2cc(OC)c(OC)c(OC)c2)c(OC)c1 (centres undefined),inactive: -24.9%,–
Nc1nc(-c2ccccc2)c(N=Nc2ccc(Cl)cc2)s1,–,"inconclusive [inhibitor, full curve]"
